# Test results as given in article PMC9911399, “Two distinct binding modes provide the RNA-binding protein RbFox with extraordinary sequence specificity”.
# Residue numbers refer to the chain shown, from its start. Some of the results follow.
# T1: RBFOX1 RRM RbFoxmut (Fox-RRM*) (Homo sapiens, UniProt Q9NWB1 109-208, R118D;E147R;N151S;E152T)
# T1 sequence: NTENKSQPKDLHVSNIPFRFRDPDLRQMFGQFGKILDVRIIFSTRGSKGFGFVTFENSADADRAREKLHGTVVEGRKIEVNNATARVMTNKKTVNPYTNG
# B1: CAUGCAU (DNA:RNA)
# RNA: GGGAGACCGGAAUUCAGAUUGUCCCAUGCAUUUAAAUCCCGUCGUAGCCACCA
# DNA 1: CAATCTGAATTCCGGTCTCCC
# DNA 2: TGGTGGCTACGACGGGATT
# B2: AAGCCAG (DNA:RNA)
# RNA: B1 RNA with C25A, U27G, G28C, U31G
# DNA 1: CAATCTGAATTCCGGTCTCCC
# DNA 2: TGGTGGCTACGACGGGATT
# B3: AUGUCAC (DNA:RNA)
# RNA: B1 RNA with C25A, A26U, U27G, G28U, U31C
# DNA 1: CAATCTGAATTCCGGTCTCCC
# DNA 2: TGGTGGCTACGACGGGATT
# B4: GAAGUCG (DNA:RNA)
# RNA: B1 RNA with C25G, U27A, C29U, A30C, U31G
# DNA 1: CAATCTGAATTCCGGTCTCCC
# DNA 2: TGGTGGCTACGACGGGATT
# B5: CUCAUGA (DNA:RNA)
# RNA: B1 RNA with A26U, U27C, G28A, C29U, A30G, U31A
# DNA 1: CAATCTGAATTCCGGTCTCCC
# DNA 2: TGGTGGCTACGACGGGATT
# B6: CCGCUCU (DNA:RNA)
# RNA: B1 RNA with A26C, U27G, G28C, C29U, A30C
# DNA 1: CAATCTGAATTCCGGTCTCCC
# DNA 2: TGGTGGCTACGACGGGATT
# B7: AAGAUUG (DNA:RNA)
# RNA: B1 RNA with C25A, U27G, G28A, C29U, A30U, U31G
# DNA 1: CAATCTGAATTCCGGTCTCCC
# DNA 2: TGGTGGCTACGACGGGATT
# B8: AAUUUCG (DNA:RNA)
# RNA: B1 RNA with C25A, G28U, C29U, A30C, U31G
# DNA 1: CAATCTGAATTCCGGTCTCCC
# DNA 2: TGGTGGCTACGACGGGATT
# B9: ACGUGUC (DNA:RNA)
# RNA: GGGAGACCGGAAUUCAGAUUGUCCACGUGUCUUAAAUCCCGUCGUAGCCACCA
# DNA 1: CAATCTGAATTCCGGTCTCCC
# DNA 2: TGGTGGCTACGACGGGATT
# B10: GAAUGCU (DNA:RNA)
# RNA: B9 RNA with A25G, C26A, G27A, U30C, C31U
# DNA 1: CAATCTGAATTCCGGTCTCCC
# DNA 2: TGGTGGCTACGACGGGATT
# B11: CAUGCCG (DNA:RNA)
# RNA: B1 RNA with A30C, U31G
# DNA 1: CAATCTGAATTCCGGTCTCCC
# DNA 2: TGGTGGCTACGACGGGATT
# B12: GGACCCA (DNA:RNA)
# RNA: B1 RNA with C25G, A26G, U27A, G28C, A30C, U31A
# DNA 1: CAATCTGAATTCCGGTCTCCC
# DNA 2: TGGTGGCTACGACGGGATT
# B13: CAUGACU (DNA:RNA)
# RNA: B1 RNA with C29A, A30C
# DNA 1: CAATCTGAATTCCGGTCTCCC
# DNA 2: TGGTGGCTACGACGGGATT
# B14: GCACGUU (DNA:RNA)
# RNA: B9 RNA with A25G, G27A, U28C, C31U
# DNA 1: CAATCTGAATTCCGGTCTCCC
# DNA 2: TGGTGGCTACGACGGGATT
# B15: AGUACAG (DNA:RNA)
# RNA: B1 RNA with C25A, A26G, G28A, U31G
# DNA 1: CAATCTGAATTCCGGTCTCCC
# DNA 2: TGGTGGCTACGACGGGATT
# B16: CACCGGU (DNA:RNA)
# RNA: B1 RNA with U27C, G28C, C29G, A30G
# DNA 1: CAATCTGAATTCCGGTCTCCC
# DNA 2: TGGTGGCTACGACGGGATT
# B17: CCUCCGC (DNA:RNA)
# RNA: B1 RNA with A26C, G28C, A30G, U31C
# DNA 1: CAATCTGAATTCCGGTCTCCC
# DNA 2: TGGTGGCTACGACGGGATT
# B18: UCAUAUU (DNA:RNA)
# RNA: B9 RNA with A25U, G27A, G29A, C31U
# DNA 1: CAATCTGAATTCCGGTCTCCC
# DNA 2: TGGTGGCTACGACGGGATT
# B19: ACCUGCG (DNA:RNA)
# RNA: B9 RNA with G27C, U30C, C31G
# DNA 1: CAATCTGAATTCCGGTCTCCC
# DNA 2: TGGTGGCTACGACGGGATT
# B20: AGGGAUU (DNA:RNA)
# RNA: B9 RNA with C26G, U28G, G29A, C31U
# DNA 1: CAATCTGAATTCCGGTCTCCC
# DNA 2: TGGTGGCTACGACGGGATT
# B21: CAUUAGC (DNA:RNA)
# RNA: B1 RNA with G28U, C29A, A30G, U31C
# DNA 1: CAATCTGAATTCCGGTCTCCC
# DNA 2: TGGTGGCTACGACGGGATT
# B22: AAAGGUC (DNA:RNA)
# RNA: B9 RNA with C26A, G27A, U28G
# DNA 1: CAATCTGAATTCCGGTCTCCC
# DNA 2: TGGTGGCTACGACGGGATT
# B23: CGAGACU (DNA:RNA)
# RNA: B1 RNA with A26G, U27A, C29A, A30C
# DNA 1: CAATCTGAATTCCGGTCTCCC
# DNA 2: TGGTGGCTACGACGGGATT
# B24: UGUUUCA (DNA:RNA)
# RNA: B9 RNA with A25U, C26G, G27U, G29U, U30C, C31A
# DNA 1: CAATCTGAATTCCGGTCTCCC
# DNA 2: TGGTGGCTACGACGGGATT
# B25: AGUCGCA (DNA:RNA)
# RNA: B9 RNA with C26G, G27U, U28C, U30C, C31A
# DNA 1: CAATCTGAATTCCGGTCTCCC
# DNA 2: TGGTGGCTACGACGGGATT
# B26: GUCUCCG (DNA:RNA)
# RNA: B9 RNA with A25G, C26U, G27C, G29C, U30C, C31G
# DNA 1: CAATCTGAATTCCGGTCTCCC
# DNA 2: TGGTGGCTACGACGGGATT
# B27: CGCGAAU (DNA:RNA)
# RNA: B1 RNA with A26G, U27C, C29A
# DNA 1: CAATCTGAATTCCGGTCTCCC
# DNA 2: TGGTGGCTACGACGGGATT
# B28: CGAAUGA (DNA:RNA)
# RNA: B1 RNA with A26G, U27A, G28A, C29U, A30G, U31A
# DNA 1: CAATCTGAATTCCGGTCTCCC
# DNA 2: TGGTGGCTACGACGGGATT
# B29: UGCAGGG (DNA:RNA)
# RNA: B9 RNA with A25U, C26G, G27C, U28A, U30G, C31G
# DNA 1: CAATCTGAATTCCGGTCTCCC
# DNA 2: TGGTGGCTACGACGGGATT
# B30: GGAAGCA (DNA:RNA)
# RNA: B9 RNA with A25G, C26G, G27A, U28A, U30C, C31A
# DNA 1: CAATCTGAATTCCGGTCTCCC
# DNA 2: TGGTGGCTACGACGGGATT
# B31: GCAUAUU (DNA:RNA)
# RNA: B9 RNA with A25G, G27A, G29A, C31U
# DNA 1: CAATCTGAATTCCGGTCTCCC
# DNA 2: TGGTGGCTACGACGGGATT
# Molecular target: T1, RBFOX1 RRM RbFoxmut (Fox-RRM*)
# Assay: EMSA; HiTS-Eq, 1 nM pool, 10 min; buffer printed only for the single-RNA assays: 10 mM Tris pH 7.5, 150 mM NaCl, 3.4 mM EDTA, 0.001% NP-40, 30 C
# Conditions: tags: His6 N-terminal (pET28a); label: 5' 32P
# Procedure, shortened: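 These values rest on relative association constants, computed from read-count changes of each RNA species versus the control reaction and normalised to the cognate motif. Reads came from free RNA recovered by 8% native PAGE after purified RbFox RRM (wild type or mutant) at increasing concentrations was equilibrated for 10 min in 50 µL with 1 nM of a 5′-radiolabelled pool with 7 randomized nucleotides and DNA-annealed flanks.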
row,Binder,binding signal
1,B1,0.143 KA relative to UGCAUGU
2,B2,0.112 KA relative to UGCAUGU
3,B3,0.0902 KA relative to UGCAUGU
4,B4,0.103 KA relative to UGCAUGU
5,B5,0.115 KA relative to UGCAUGU
6,B6,0.0607 KA relative to UGCAUGU
7,B7,0.223 KA relative to UGCAUGU
8,B8,0.0766 KA relative to UGCAUGU
9,B9,0.254 KA relative to UGCAUGU
10,B10,0.634 KA relative to UGCAUGU
11,B11,0.0986 KA relative to UGCAUGU
12,B12,0.0818 KA relative to UGCAUGU
13,B13,0.074 KA relative to UGCAUGU
14,B14,0.318 KA relative to UGCAUGU
15,B15,0.0613 KA relative to UGCAUGU
16,B16,0.0698 KA relative to UGCAUGU

row,Binder,binding signal
1,B17,0.0792 KA relative to UGCAUGU
2,B18,0.105 KA relative to UGCAUGU
3,B19,0.117 KA relative to UGCAUGU
4,B20,0.113 KA relative to UGCAUGU
5,B21,0.0975 KA relative to UGCAUGU
6,B22,0.0652 KA relative to UGCAUGU
7,B23,0.0834 KA relative to UGCAUGU
8,B24,0.155 KA relative to UGCAUGU
9,B25,0.133 KA relative to UGCAUGU
10,B26,0.142 KA relative to UGCAUGU
11,B27,0.0891 KA relative to UGCAUGU
12,B28,1.04 KA relative to UGCAUGU
13,B29,0.091 KA relative to UGCAUGU
14,B30,0.0999 KA relative to UGCAUGU
15,B31,0.142 KA relative to UGCAUGU
